# The list shows a part of the results. The list includes weakly bound sequences.
# Molecular target: T1, MBP-FoxP3dN (UniProt Q99JB6)
# T1 sequence: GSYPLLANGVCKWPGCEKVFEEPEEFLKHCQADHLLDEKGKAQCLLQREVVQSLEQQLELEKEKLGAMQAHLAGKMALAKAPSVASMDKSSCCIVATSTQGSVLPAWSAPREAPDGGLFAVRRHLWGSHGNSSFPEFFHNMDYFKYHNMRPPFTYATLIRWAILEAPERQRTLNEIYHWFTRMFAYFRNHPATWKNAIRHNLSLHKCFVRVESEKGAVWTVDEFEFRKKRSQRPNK
# Assay: PD-seq (MBP pull-down with sequencing)
# Settings: 20 mM Tris-HCl pH 7.5, 100 mM NaCl, 1.5 mM MgCl2, 0.4 uM protein, 0.1 uM dsDNA library, 30 min, room temperature, amylose pull-down; high values mean tight binding; double strand, one strand shown
row,Sequence,binding signal (RPM ratio (pull-down/input))
1,GATGATTGTTCTCCCAGCTGATGAATTCCGTGTGTCGAGTAAACAAATTTTCCTAATCTTTCTGTTCAAGCGCCATCTAC,1.62
2,GATGATTGTTCTCCCAGCTGATGAATTCCGTTCCTCGAGTAAACAAATTTTCCTAATCTTTCTGTTCAAGCGCCATCTAC,0.625
3,GATGATTGTTCTCCCAGCTGATGAATTGGAAGCATCGAGTAAACAAATTTTCCTAATCTTTCTGTTCAAGCGCCATCTAC,0.654
4,GATGATTGTTCTCCCAGCTGATGAATTGTTCCAATCGAGTAAACAAATTTTCCTAATCTTTCTGTTCAAGCGCCATCTAC,0.511
5,GATGATTGTTCTCCCAGCTGATGAATTAATTTTTTCGAGTAAACAAATTTTCCTAATCTTTCTGTTCAAGCGCCATCTAC,1.04
6,GATGATTGTTCTCCCAGCTGATGAATTCCCTTGTTCGAGTAAACAAATTTTCCTAATCTTTCTGTTCAAGCGCCATCTAC,0.355
7,GATGATTGTTCTCCCAGCTGATGAATTCAATAACTCGAGTAAACAAATTTTCCTAATCTTTCTGTTCAAGCGCCATCTAC,0.488
8,GATGATTGTTCTCCCAGCTGATGAATTTTCGATTTCGAGTAAACAAATTTTCCTAATCTTTCTGTTCAAGCGCCATCTAC,0.398
9,GATGATTGTTCTCCCAGCTGATGAATTTGGCGTGTCGAGTAAACAAATTTTCCTAATCTTTCTGTTCAAGCGCCATCTAC,3.94
10,GATGATTGTTCTCCCAGCTGATGAATTGCTACATTCGAGTAAACAAATTTTCCTAATCTTTCTGTTCAAGCGCCATCTAC,0.924
11,GATGATTGTTCTCCCAGCTGATGAATTGTCCACTTCGAGTAAACAAATTTTCCTAATCTTTCTGTTCAAGCGCCATCTAC,0.379
12,GATGATTGTTCTCCCAGCTGATGAATTCACACCGTCGAGTAAACAAATTTTCCTAATCTTTCTGTTCAAGCGCCATCTAC,0.321
13,GATGATTGTTCTCCCAGCTGATGAATTAAAGTATTCGAGTAAACAAATTTTCCTAATCTTTCTGTTCAAGCGCCATCTAC,1.32
14,GATGATTGTTCTCCCAGCTGATGAATTGCGCCAATCGAGTAAACAAATTTTCCTAATCTTTCTGTTCAAGCGCCATCTAC,1.33
15,GATGATTGTTCTCCCAGCTGATGAATTAAAGTCCTCGAGTAAACAAATTTTCCTAATCTTTCTGTTCAAGCGCCATCTAC,0.289
16,GATGATTGTTCTCCCAGCTGATGAATTGCAGCTTTCGAGTAAACAAATTTTCCTAATCTTTCTGTTCAAGCGCCATCTAC,1.75
17,GATGATTGTTCTCCCAGCTGATGAATTGGACAGTTCGAGTAAACAAATTTTCCTAATCTTTCTGTTCAAGCGCCATCTAC,0.288
18,GATGATTGTTCTCCCAGCTGATGAATTATAAACGTCGAGTAAACAAATTTTCCTAATCTTTCTGTTCAAGCGCCATCTAC,0.55
19,GATGATTGTTCTCCCAGCTGATGAATTGCGAAGTTCGAGTAAACAAATTTTCCTAATCTTTCTGTTCAAGCGCCATCTAC,0.614
20,GATGATTGTTCTCCCAGCTGATGAATTACGGTTGTCGAGTAAACAAATTTTCCTAATCTTTCTGTTCAAGCGCCATCTAC,1.4

row,Sequence,binding signal (RPM ratio (pull-down/input))
1,GATGATTGTTCTCCCAGCTGATGAATTCCAACTATCGAGTAAACAAATTTTCCTAATCTTTCTGTTCAAGCGCCATCTAC,0.47
2,GATGATTGTTCTCCCAGCTGATGAATTAGGACTTTCGAGTAAACAAATTTTCCTAATCTTTCTGTTCAAGCGCCATCTAC,1.03
3,GATGATTGTTCTCCCAGCTGATGAATTGATCCACTCGAGTAAACAAATTTTCCTAATCTTTCTGTTCAAGCGCCATCTAC,0.379
4,GATGATTGTTCTCCCAGCTGATGAATTCCGCTGTTCGAGTAAACAAATTTTCCTAATCTTTCTGTTCAAGCGCCATCTAC,1.28
5,GATGATTGTTCTCCCAGCTGATGAATTAATAATATCGAGTAAACAAATTTTCCTAATCTTTCTGTTCAAGCGCCATCTAC,0.762
6,GATGATTGTTCTCCCAGCTGATGAATTTGCTTCGTCGAGTAAACAAATTTTCCTAATCTTTCTGTTCAAGCGCCATCTAC,2.27
7,GATGATTGTTCTCCCAGCTGATGAATTCTCGGAGTCGAGTAAACAAATTTTCCTAATCTTTCTGTTCAAGCGCCATCTAC,0.176
8,GATGATTGTTCTCCCAGCTGATGAATTCGTCTACTCGAGTAAACAAATTTTCCTAATCTTTCTGTTCAAGCGCCATCTAC,1.2
9,GATGATTGTTCTCCCAGCTGATGAATTAACCGGATCGAGTAAACAAATTTTCCTAATCTTTCTGTTCAAGCGCCATCTAC,0.179
10,GATGATTGTTCTCCCAGCTGATGAATTGAACTGCTCGAGTAAACAAATTTTCCTAATCTTTCTGTTCAAGCGCCATCTAC,0.283
11,GATGATTGTTCTCCCAGCTGATGAATTCATCCTATCGAGTAAACAAATTTTCCTAATCTTTCTGTTCAAGCGCCATCTAC,0.461
12,GATGATTGTTCTCCCAGCTGATGAATTTGGAACATCGAGTAAACAAATTTTCCTAATCTTTCTGTTCAAGCGCCATCTAC,0.503
13,GATGATTGTTCTCCCAGCTGATGAATTATGCCACTCGAGTAAACAAATTTTCCTAATCTTTCTGTTCAAGCGCCATCTAC,6.25
14,GATGATTGTTCTCCCAGCTGATGAATTTTACGATTCGAGTAAACAAATTTTCCTAATCTTTCTGTTCAAGCGCCATCTAC,0.308
15,GATGATTGTTCTCCCAGCTGATGAATTCATTTGTTCGAGTAAACAAATTTTCCTAATCTTTCTGTTCAAGCGCCATCTAC,3.73
16,GATGATTGTTCTCCCAGCTGATGAATTTGACAATTCGAGTAAACAAATTTTCCTAATCTTTCTGTTCAAGCGCCATCTAC,0.514
17,GATGATTGTTCTCCCAGCTGATGAATTGAGCCCATCGAGTAAACAAATTTTCCTAATCTTTCTGTTCAAGCGCCATCTAC,0.944
18,GATGATTGTTCTCCCAGCTGATGAATTTGGAATGTCGAGTAAACAAATTTTCCTAATCTTTCTGTTCAAGCGCCATCTAC,0.649
19,GATGATTGTTCTCCCAGCTGATGAATTAAGATACTCGAGTAAACAAATTTTCCTAATCTTTCTGTTCAAGCGCCATCTAC,0.78
20,GATGATTGTTCTCCCAGCTGATGAATTTTAAAGGTCGAGTAAACAAATTTTCCTAATCTTTCTGTTCAAGCGCCATCTAC,0.167
